Results published in patent US20260226125A1 (MEDICENNA THERAPEUTICS, published 2026).

B1: MDNA209-Fc-KFR (2:1:2) (Fc fusion)
chain: APTSSSTKKTQLQLEHLRLDLEMILNGINNYKNPKLTRMLTFKFYMPKKATELKHLQCLEEELKPLEEVLNLAQSKNFHFDPRDVVSNINVFVLELKGSETTFMCEYADETATIVEFLNRWITFCTSIIRTLTGGGGSGGGGSGGGGS[omitted - human IgG1 Fc with changes]GGGSGGGGSGGGGSHKCDITLQEIIKTLNSLTEQKTLCTELTVTDIFAASKNTTEKETFCRAATVLRQFYSHHEKDTRCLGATAQQFHRHKQLIRFLKRLDRNLWGLAGLNSCPVKEANQSTLENFLERLKTIMKEKFRKCSS
notes: MDNA209, Fc and IL-4 mutein KFR (R121K, Y124F, S125R) in one chain; Made in CHO
B2: MDNA209-Fc-RGA (2:1:2) (Fc fusion)
chain: APTSSSTKKTQLQLEHLRLDLEMILNGINNYKNPKLTRMLTFKFYMPKKATELKHLQCLEEELKPLEEVLNLAQSKNFHFDPRDVVSNINVFVLELKGSETTFMCEYADETATIVEFLNRWITFCTSIIRTLTGGGGSGGGGSGGGGS[omitted - human IgG1 Fc with changes]GGGSGGGGSGGGGSHKCDITLQEIIKTLNSLTEQKTLCTELTVTDIFAASKNTTEKETFCRAATVLRQFYSHHEKDTRCLGATAQQFHRHKQLIRFLKRLDRNLWGLAGLNSCPVKEANQSTLENFLERLRVIMQSKWFKCGA
notes: MDNA209, Fc and IL-4 mutein RGA (K117R, T118V, R121Q, E122S, Y124W, S125F, S128G, S129A) in one chain; Made in CHO

Legend:
human CD122 (IL-2Rβ) = molecular target: T1, human CD122 (IL-2Rβ) (human, UniProt P14784 27-240); assay: SPR; 1:1 binding fit
T1 construct: Receptor reagent used in SPR; also called interleukin 2 receptor beta
T1 sequence (looked up): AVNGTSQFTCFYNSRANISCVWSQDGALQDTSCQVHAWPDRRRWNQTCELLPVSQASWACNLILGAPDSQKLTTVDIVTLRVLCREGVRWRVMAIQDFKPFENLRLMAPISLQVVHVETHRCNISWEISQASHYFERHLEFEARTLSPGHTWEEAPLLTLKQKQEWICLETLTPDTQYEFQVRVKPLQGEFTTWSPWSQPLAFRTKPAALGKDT

human CD25 (IL-2Rα) = molecular target: T2, human CD25 (IL-2Rα) (human, UniProt P01589 22-240, limits assumed); assay: SPR; steady state affinity
T2 construct: Receptor reagent used in SPR; also called interleukin 2 receptor alpha
T2 sequence (looked up): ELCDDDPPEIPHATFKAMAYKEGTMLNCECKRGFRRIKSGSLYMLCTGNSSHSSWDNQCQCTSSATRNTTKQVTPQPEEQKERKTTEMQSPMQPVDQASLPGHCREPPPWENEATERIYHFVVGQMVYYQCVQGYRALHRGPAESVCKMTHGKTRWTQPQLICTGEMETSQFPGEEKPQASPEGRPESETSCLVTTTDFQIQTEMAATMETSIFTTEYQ

Kd (human CD122 (IL-2Rβ)) | Kd (human CD25 (IL-2Rα)) | Binder
5.02 nM | 32.2 nM | B1
6.03 nM | 40.3 nM | B2
